# Results reported in PubChem BioAssay AID445 (National Center for Advancing Translational Sciences (NCATS), 2006).
# The whole screen tested about 110,000 compounds, of which about 40 (0.04%) were called active. The shares of active, inactive and inconclusive entries below differ from those in the screen. Calls follow the shape of the dose curve; as a rule, active = well fitted curve in the direction sought with a large enough effect in the signal ratio (not every such curve was filed as active); inconclusive = small, poorly fitted or top-dose-only effect, or a change in a side signal; inactive = flat fitted curve, though single readings scatter; the % refers to the signal ratio. A potency beside an inconclusive call is a rough fit, not a confirmed value.
# Experiment: IkB Signaling;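 as to IkBa stabilization activation: 0% = basal untreated cells and 100% = reference inhibitor full response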
# Settings: ABC-DLBCL IkBa-CBG/CBR dual luciferase ratio (green luciferase fused to IkBa over red control in OCI-Ly3 lymphoma cells), 4 h; IkBa stabilization activation: at 57.1 µM (top of the series), scaled: untreated 0%, proteasome inhibitor 100% unless noted
# Summary of the method: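 In this assay, an IκBα–CBG68 fusion accumulates when IKK-driven degradation is blocked; native CBR normalizes for cell number. OCI-Ly3 cells were treated 4 h with compound and doxycycline, then green and red light read after Chroma-Glo addition.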
# Potency is read from the fitted curve at half-maximal effect.
Compound,IkBa stabilization activation,Potency
Cc1cc(C)n(-c2ccc(C(=O)Nc3ccc4c(c3)OCCO4)cc2)n1,inconclusive: 5.63% [signal inhibitor],
O=C(NC1CCCCC1)c1ccc(CSc2nc3ccncc3n2Cc2ccccc2F)cc1,inconclusive: 4.68% [signal inhibitor],
COc1ccc(NC(=O)CSc2nc(-c3cccs3)cc(C(F)(F)F)n2)c(OC)c1,inactive: -3.39%,
COCCCNC(=O)c1ccc2c(c1)nc1n2CCCCC1,inactive: -0.995%,
CCN(CC)CCCNC(=O)CSc1nc(-c2ccc(OC)cc2)cc(C(F)(F)F)n1,inactive: -4.24%,
Cc1sc2nc(SCC(=O)NCc3cccs3)[nH]c(=O)c2c1C,inconclusive: 2.51% [signal inhibitor],
Cc1ccccc1CNC(=O)c1ccc2c(c1)c(C)c(C)n2C,inconclusive: 4.73% [signal inhibitor],
CN(C)c1ccc(CNC(=O)c2ccc(Cn3c(SCc4ccccc4)nc4cccnc43)cc2)cc1,inconclusive: 9.1% [signal inhibitor],
Cc1ccc(Cl)cc1NC(=O)C1CCN(c2nnc(C)c3c(C)n(-c4ccccc4)nc23)CC1,inconclusive: 1.45% [signal inhibitor],
COc1ccc(-n2c(=O)c(-c3cccs3)nc3cnc(N4CCN(C)CC4)nc32)cc1,"inactive: 3.88% [at 11.4 µM, scaled: untreated 0%, proteasome inhibitor 100%]",
COCC(=O)Nc1cccc2ccccc12,,"inconclusive: 3.16 µM [signal inhibitor, full curve]"
FC(F)Oc1ccccc1C1CC(c2ccc(Br)s2)Nc2ncnn21 (configuration not stated),inconclusive: 2.8% [signal inhibitor],
Cn1c(=O)c(-c2ccc(F)cc2)nc2cnc(N3CCOCC3)nc21,"inactive: 0.594% [at 11.4 µM, scaled: untreated 0%, proteasome inhibitor 100%]",
Cc1ccc(Cn2c(N3CCCCCC3)nc3c2c(=O)[nH]c(=O)n3C)cc1,inactive: 1.46%,
CN1CCN(C2=C(Cl)C(=O)N(Cc3ccccc3)C2=O)CC1,inactive: 1.43%,
Clc1ccc(OCc2nc(-c3ccccn3)no2)c(Br)c1,inactive: 6.44%,
Cc1ccccc1N1CCN(S(=O)(=O)c2nnc(NC(=O)c3ccc(C(C)C)cc3)s2)CC1,inconclusive: -1.04% [signal inhibitor],
COc1cc(NC(=O)c2cc(C3CC3)nc3c2c(C)nn3-c2ccccc2)cc(OC)c1,inconclusive: -0.0234% [signal inhibitor],
CCCCCn1c(NCc2ccc(OC)cc2)nc2ccccc21,inconclusive: -7.04% [signal inhibitor],
O=C(c1cc(C(F)(F)F)cc(C(F)(F)F)c1)N1CCC2(CC1)CCN(c1ccncc1)CC2,"inactive: -0.976% [at 11.4 µM, scaled: untreated 0%, proteasome inhibitor 100%]",
CCS(=O)(=O)N1CCCC(C(=O)NCCOC)C1 (configuration not stated),inactive: 1.6%,
Cc1cc(C)n(-c2nc3ccccc3nc2Nc2ccc(N(C)C)cc2)n1,inactive: 11.3%,
COc1ccccc1OC(C)C(=O)Nc1cccc(-c2nc3ccccc3s2)c1 (configuration not stated),inconclusive: 3.88% [signal inhibitor],

Compound,IkBa stabilization activation,Potency
c1ccc(COc2ccc(OCCCn3cncn3)cc2)cc1,inconclusive: 1.38% [signal inhibitor],
COc1ccc(-c2noc(-c3ccc(Br)o3)n2)cc1OC,inactive: -6.31%,
NC(=O)c1ccccc1N/C=C/C(=O)c1ccco1,,"inconclusive: 10 µM [signal inhibitor, partial curve]"
Cc1cc(C)cc(NC(=O)Cn2c(-c3cncs3)nc3ccccc32)c1,inconclusive: -0.439% [signal inhibitor],
CCOC(=O)N1CCC(NC(=O)c2cc3c(C)nc4ccccc4c3o2)CC1,inconclusive: 2.48% [signal inhibitor],
CN1CCN(C(=O)c2cc3nc(-c4ccc(Cl)cc4)cc(C(F)(F)F)n3n2)CC1,inactive: -2.42%,
CC(=O)Nc1nonc1-c1nnc(SCC(=O)Nc2ccc(C)cc2)n1-c1ccccc1,inconclusive: 3.35% [signal inhibitor],
CC(=O)OC[C@@H]1O[C@@H](Oc2cc(OC(C)=O)c3c(=O)cc(-c4ccc(OC(C)=O)c(OC(C)=O)c4)oc3c2)[C@H](OC(C)=O)[C@H](OC(C)=O)[C@@H]1OC(C)=O,"inactive: 8.82% [at 11.4 µM, scaled: untreated 0%, proteasome inhibitor 100%]",
O=C(CS(=O)(=O)c1cccc2nsnc12)N1CCN(c2cccc(Cl)c2)CC1,inactive: 0.629%,
COc1ccc(-c2cc(-c3ccccc3)c(C#N)c(SCC(O)CS(=O)(=O)Cc3ccc(Cl)cc3)n2)cc1 (configuration not stated),inconclusive: -1.38% [signal inhibitor],
CCCN1CCN(c2ncnc3sc(C(=O)Nc4ccc(C(C)C)cc4)c(C)c23)CC1,inconclusive: 0.819% [signal inhibitor],
COc1cccc(N2CCN(C(=O)c3ccc(C)c(NC(=O)c4nsc5ccccc45)c3)CC2)c1,inconclusive: -1.01% [signal inhibitor],
Cc1ccc(N(CC(=O)NCCc2ccc(Cl)cc2)S(=O)(=O)c2c(C)noc2C)cc1,inconclusive: 2.31% [signal inhibitor],
COc1ccc(CN2CCc3c(c(=O)n4ncc(C(=O)N5CCN(c6ccccc6OC)CC5)c4n3C)C2)cc1,inconclusive: 5.11% [signal inhibitor],
Cc1cccc(CNc2nc(-c3ccc4c(c3)OCO4)nc3ccccc23)c1,"inactive: 11.8% [at 11.4 µM, scaled: untreated 0%, proteasome inhibitor 100%]",
O=C1c2ccccc2-c2c1nc1c([n+]2[O-])CCCC1,inactive: -1.15%,
COc1ccc(/C=N/n2c(N)nc3ccccc32)cc1OC,inactive: -1.3%,
CCc1ccc(-n2c(=O)c3c4c(sc3n(CC(=O)c3ccc(F)cc3)c2=O)CCC4)cc1,inconclusive: 4.78% [signal inhibitor],
COc1ccc(-c2ccc3c(N)c(C(=O)c4ccc(OC)c(OC)c4)sc3n2)cc1,inconclusive: 1.41% [signal inhibitor],
CCCN1Cc2cccc(C(=O)Nc3ccc(OC)c(OC)c3)c2C1=O,inactive: -1.45%,
CN(CCC#N)C(=O)CSc1ncnc2sc(-c3ccccc3)cc12,inconclusive: 2.43% [signal inhibitor],
CN=Cc1sc2ccccc2c1O,,"inconclusive: 15.8 µM [signal inhibitor, partial curve]"
CCc1cccc(NC(=O)COC(=O)c2cn(CC)c3nc(C)ccc3c2=O)c1,inactive: -1.37%,

Compound,IkBa stabilization activation,Potency
COc1ccc(Nc2ccc3c(c2)=NC2(CCCCC2)[N+]=3[O-])cc1,inconclusive: -4.85% [signal inhibitor],
CCCc1cc(=O)[nH]c(SCC(=O)N2CCN(c3ccccc3)CC2)n1,inconclusive: -0.279% [signal inhibitor],
Cc1ccc(NC(=O)CSc2nnc3scc(-c4ccc(Cl)cc4)n23)cc1,inconclusive: -1.55% [signal inhibitor],
CCN(CC)C(=O)Cn1c(=O)cc(C)c2c(C)nn(-c3cccc(Cl)c3C)c21,inconclusive: 2.05% [signal inhibitor],
COc1cccc(CNC(=O)C2CCC(CNS(=O)(=O)c3ccc4c(c3)CCCC(=O)N4)CC2)c1 (configuration not stated),inconclusive: 4.48% [signal inhibitor],
Cc1ccc(Nc2nc3nonc3nc2Nc2cccc(C(F)(F)F)c2)cc1Cl,inconclusive: -4.2% [signal inhibitor],
COc1ccc(NC(=O)Cn2cc(S(=O)(=O)N3CCN(c4ccccc4F)CC3)c3ccccc3c2=O)cc1Cl,inconclusive: 5.36% [signal inhibitor],
CCn1c(SCC(=O)c2[nH]c(C)c(C(C)=O)c2C)nnc1-c1cccs1,inconclusive: 4.4% [signal inhibitor],
CNc1c(NC(=O)c2ccc(OC)c(OC)c2)c(=O)oc2ccccc12,,"inconclusive: 3.16 µM [signal inhibitor, full curve]"
Cc1n[nH]c(C)c1S(=O)(=O)N(CC(=O)Nc1ccc2c(c1)OCCO2)c1ccc(C(C)C)cc1,inconclusive: 3.31% [signal inhibitor],
Cc1nc2cnc(N3CCN(C)CC3)nc2n(Cc2cccs2)c1=O,"inactive: 1.14% [at 11.4 µM, scaled: untreated 0%, proteasome inhibitor 100%]",
CCc1ccc(C(=O)c2cn(CC(=O)Nc3ccc4c(c3)OCO4)c3ccc(CC)cc3c2=O)cc1,inactive: -0.0668%,
Cc1ccc(NC(=O)C(Cc2c[nH]c3ccccc23)NC(=O)OC(C)(C)C)c(C)c1 (configuration not stated),inconclusive: 7.07% [signal inhibitor],
C[C@@H](CCc1ccc(O)cc1)NCCc1ccc(O)c(O)c1,inactive,
COc1ccc(S(=O)(=O)NCc2ccc3c(c2)CCN3C(=O)c2ccccc2)cc1OC,inactive: -0.00132%,
c1ccc(Cn2nnnc2C(c2cccs2)N2CCCCCC2)cc1 (configuration not stated),inconclusive: 1.88% [signal inhibitor],
COC(=O)c1cc(OC)c(OC)cc1NC(=O)c1ccoc1C,inactive: 0.5%,
O=c1cc(-c2ccccc2)[nH]n1-c1nc2ccccc2[nH]1,,"inconclusive: 39.8 µM [signal inhibitor, single point]"
COc1ccccc1-n1nnnc1S(=O)(=O)Cc1ccc(Cl)cc1,inconclusive: -11.9% [signal inhibitor],
COc1ccccc1OCCn1c(NC(=O)c2ccccc2Cl)nc2ccccc21,inconclusive: 12.8% [signal inhibitor],
Cc1ccc(NC(=O)C(=O)NCC(c2cccnc2)N2CCN(Cc3ccccc3)CC2)cc1C (configuration not stated),inconclusive: -1.46% [signal inhibitor],
